# Marks after values point to notes of the source that are not given here.
# Columns and labels:
# MRSE 35984 = assay: MIC susceptibility assay (broth microdilution); details: 16 h; for MIC: Staphylococcus epidermidis, MRSE, read-out: MIC MRSE 35984
# [1] = test system: MRSA, MRSE and VRE strains; assay: MIC assays, summary statements over several Gram-positive strains
# MRSA-1707 = assay: MIC susceptibility assay (broth microdilution); details: 16 h
# VRE 700221 = assay: MIC susceptibility assay (broth microdilution); details: 16 h; for MIC VRE 700221: planktonic growth inhibition, 37° C.
# MRSA-44 = assay: MIC susceptibility assay (broth microdilution); details: 16 h
# [2] = planktonic growth inhibition, 37° C.
smiles,measurement,setting,value
"Oc1c(Br)c(Cl)c(Br)c2nc3c(Br)cccc3nc12 [Compound 35, 2,4,6-Tribromo-3-chlorophenazin-1-ol]",MIC,MRSE 35984,0.1 µM
same,MICs against all Gram-positive strains in the panel,[1]; result in words,sub-micromolar
"Oc1cc(Cl)cc2nc3ccc(I)cc3nc12 [Compound 27, 3-Chloro-8-iodophenazin-1-ol]",MIC,"MRSA-1707; Staphylococcus aureus, MRSA, read-out: MIC MRSA-1707, planktonic growth inhibition, 16 h, 37° C.",0.78 µM
"Oc1cc(Cl)cc2nc3ccc(Br)cc3nc12 [Compound 26, 8-Bromo-3-chlorophenazin-1-ol]",MIC,MRSE 35984,> 50 µM
same,MIC,"VRE 700221; Enterococcus, VRE, read-out: MIC VRE 700221",> 50 µM
"Cc1c(Br)ccc2nc3c(O)cc(Cl)cc3nc12 [Compound 21, 7-Bromo-3-chloro-6-methylphenazin-1-ol]",MIC,MRSE 35984,0.78 µM
same,MIC VRE 700221,VRE 700221,1.17^a μM
same,MIC,"[1]; Staphylococcus epidermidis, MRSA|MRSE|VRE, read-out: MIC against Staphylococcus strains",0.3 to 0.78 µM
same,MIC,"MRSA-44; Staphylococcus aureus, MRSA, read-out: MIC MRSA-44",0.3 µM
"Oc1cccc2nc3ccccc3nc12 [48 (1-OHP), 1-Hydroxyphenaizne, reference compound]",MIC MRSE 35984,MRSE 35984; [2],37.5^a μM
same,MIC MRSA-1707,MRSA-1707; [2],50 µM
same,MIC VRE 700221,VRE 700221,>50 µM
same,MIC MRSA-44,MRSA-44; [2],50 µM
"Oc1c(Br)c(Cl)c(Br)c2nc3ccc(Br)cc3nc12 [Compound 36, 2,4,8-Tribromo-3-chlorophenazin-1-ol]",MIC,MRSE 35984,0.1 µM

# — US12060334B2, “3-substituted phenazine derivatives as antimicrobial agents” (University of Florida Research Foundation, Incorporated, priority 2021, dated 2024)
